The campaign covered roughly 350,000 compounds. About 31,000 (8.9%) were called active. This list was built around the results that the source calls inconclusive (neither active nor inactive); the mix of calls is not that of the screen. Calls follow the shape of the dose curve; as a rule, active = well fitted inhibition curve with a large enough effect; inconclusive = small, poorly fitted or top-dose-only effect; inactive = no such curve, though single readings can be large or run the other way. Potencies of inconclusive entries are doubtful fits and often do not repeat.
The molecules below were run against Histone-lysine N-methyltransferase EHMT2 (Homo sapiens) (UniProt Q96KQ7) (assay: qHTS Assay for Inhibitors of Histone Lysine Methyltransferase G9a). Conditions: G9a H3K9 monomethylation, AlphaScreen, 2 h; activity, negative = inhibition: at 59 µM (top of the series) unless noted.
UniProt Q96KQ7, sequence (Q96KQ7 whole entry, looked up): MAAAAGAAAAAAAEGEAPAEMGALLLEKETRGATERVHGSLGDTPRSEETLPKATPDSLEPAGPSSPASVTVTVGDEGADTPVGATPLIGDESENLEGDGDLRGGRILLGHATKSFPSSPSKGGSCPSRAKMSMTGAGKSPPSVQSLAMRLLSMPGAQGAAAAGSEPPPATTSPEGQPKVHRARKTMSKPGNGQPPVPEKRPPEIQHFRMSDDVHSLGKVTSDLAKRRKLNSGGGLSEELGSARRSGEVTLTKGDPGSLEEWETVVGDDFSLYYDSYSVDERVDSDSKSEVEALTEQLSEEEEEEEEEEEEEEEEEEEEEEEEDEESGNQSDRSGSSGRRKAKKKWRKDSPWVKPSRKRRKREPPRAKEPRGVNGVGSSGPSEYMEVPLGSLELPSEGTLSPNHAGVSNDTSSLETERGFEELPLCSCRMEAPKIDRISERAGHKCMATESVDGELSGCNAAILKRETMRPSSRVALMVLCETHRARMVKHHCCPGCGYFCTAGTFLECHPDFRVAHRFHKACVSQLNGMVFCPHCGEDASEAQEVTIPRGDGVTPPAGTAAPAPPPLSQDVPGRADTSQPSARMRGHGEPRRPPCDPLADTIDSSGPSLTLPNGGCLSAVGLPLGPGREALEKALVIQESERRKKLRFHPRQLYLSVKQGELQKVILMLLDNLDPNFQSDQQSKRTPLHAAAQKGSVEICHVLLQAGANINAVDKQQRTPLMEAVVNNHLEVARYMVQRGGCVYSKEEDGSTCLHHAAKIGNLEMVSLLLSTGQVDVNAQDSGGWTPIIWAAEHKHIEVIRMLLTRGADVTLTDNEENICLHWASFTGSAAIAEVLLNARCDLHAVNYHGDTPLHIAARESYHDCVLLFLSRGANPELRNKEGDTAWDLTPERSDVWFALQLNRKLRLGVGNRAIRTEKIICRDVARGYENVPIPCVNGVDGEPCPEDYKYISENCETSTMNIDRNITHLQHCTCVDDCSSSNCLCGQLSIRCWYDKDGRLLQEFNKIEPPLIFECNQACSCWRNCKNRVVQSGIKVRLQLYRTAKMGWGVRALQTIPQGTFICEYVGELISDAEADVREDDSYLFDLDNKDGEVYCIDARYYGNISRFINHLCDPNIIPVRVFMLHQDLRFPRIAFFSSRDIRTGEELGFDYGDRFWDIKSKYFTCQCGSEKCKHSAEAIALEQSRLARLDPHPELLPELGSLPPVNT
Method in brief: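 Methyltransferase reactions run at room temperature for 2 h (20 nM enzyme, 500 nM biotin-H3K9 peptide, 20 uM SAM) after a 15 min compound preincubation; product detected by AlphaScreen beads and anti-H3K9me1 antibody.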
% is scaled to controls: 0 for no effect and ±100 for the full control effect; potency is read from the fitted curve at half-maximal effect; tags tell the direction and shape of the fitted curve.
Also: nearly all actives have a fitted effect of over 75% in size.

Compound	Potency	activity, negative = inhibition
CC1CCN(C(=O)CCN2C(=O)/C(=C/c3cccs3)SC2=S)CC1	active: 31.6 µM	–
CCOC(=O)c1ccc(-c2ccc(C(=O)Nc3cccnc3)o2)cc1	inconclusive: 28.2 µM [inhibitor, single point]	–
Cc1ccc(CSc2nnc(-c3cccnc3)n2N)cc1	inactive	–
COC(=O)c1sc(N2C(=O)C(O)=C(C(=O)c3ccc(C)o3)C2c2ccc([N+](=O)[O-])cc2)nc1C (stereo not drawn)	inconclusive: 56.2 µM [inhibitor, single point]	–
O=[N+]([O-])c1nn(-c2ccc3c(c2)OCCO3)n(O)c1=Nc1ccccc1	inconclusive: 2.82 µM [inhibitor, full curve, poor fit]	–
CCn1c(-c2c(Cl)c(C)nn2C)n[nH]c1=S	active: 11.2 µM	–
Cc1cc2nc(-c3cccnc3SCC(=O)NCc3ccco3)[nH]c2cc1C	active: 10 µM	–
O=C(CCN1C(=O)/C(=C\c2ccccc2F)SC1=S)Nc1ccc(C(=O)O)c(O)c1	active: 79.4 µM	–
NC(=O)c1ccc(NC(=O)COC(=O)c2c3c(nc4ccccc24)/C(=C\c2ccc4c(c2)OCO4)CCC3)cc1	inconclusive: 89.1 µM [inhibitor, single point]	–
CC(CCn1cccn1)NC(=O)c1cc(COc2ccc(F)cc2F)on1 (stereo not drawn)	inconclusive: 5.01 µM [inhibitor, partial curve, poor fit]	–
CC1=C(C(=O)OCC2CCCCC2)C(c2ccc(Cl)cc2)CC(=O)N1 (stereo not drawn)	inactive	–
Cc1ccc(S(=O)(=O)n2nc(C)c(C#N)c2N)cc1	inconclusive: 25.1 µM [inhibitor, single point]	–
Cc1ccc(C)c(N(CC(=O)Nc2ccc(-c3nc4ccc(C)cc4s3)cc2)S(C)(=O)=O)c1	inconclusive: 39.8 µM [inhibitor, single point]	–
COc1ccc(/C(C)=N/Nc2ccc(C(=O)O)cc2)cc1OC	inconclusive: 3.55 µM [inhibitor, full curve, poor fit]	–
Cc1ccc(C(=O)NC(=S)N2CC(C)OC(C)C2)cc1[N+](=O)[O-] (stereo not drawn)	active: 39.8 µM	–
O=C(COc1ccc(F)cc1Cl)Nc1cccc(S(=O)(=O)N2CCCC2)c1	inactive	–
NNc1nc2c(F)cc(F)cc2s1	inconclusive: 25.1 µM [inhibitor, single point]	–
CCCCn1c(N)c(N(CC)C(=O)c2ccc(Cl)c([N+](=O)[O-])c2)c(=O)[nH]c1=O	inconclusive: 89.1 µM [inhibitor, single point]	–
Cc1ccc(NC(=O)CCc2c(C)nn(-c3ccc(N4CCOCC4)nn3)c2C)cc1	inactive	–
CCOC(=O)c1cc(C)n(CC2CCC(C(=O)Nc3ccccc3OC)CC2)c1C (stereo not drawn)	inconclusive: 5.01 µM [inhibitor, full curve, poor fit]	–
O=c1c(-c2ccccc2)nc2cnc(Nc3ccccc3)nc2n1C[C@H]1CCCO1	–	inactive: 20.9% [at 0.501 µM]
Nc1ccc(-c2ncc(-c3ccccc3)o2)cc1	inconclusive: 50.1 µM [inhibitor, partial curve, poor fit]	–

Compound	Potency	activity, negative = inhibition
CCOC(=O)c1sc2ccccc2c1S(=O)(=O)Nc1ccc(C(C)=O)cc1	inconclusive: 35.5 µM [inhibitor, single point]	–
CCC(C)(C)C1CCC2(CC1)NC(=O)N(CC(=O)NC(C)CCc1ccccc1)C2=O (stereo not drawn)	inconclusive: 89.1 µM [inhibitor, partial curve, poor fit]	–
COc1ccc2nc(N(Cc3cccnc3)C(=O)Cc3ccccc3)sc2c1	inconclusive: 5.01 µM [inhibitor, single point]	–
CC1CC(C)(C)NC(=S)N1CCC(=O)N1CCN(c2ccccc2)CC1 (stereo not drawn)	active: 39.8 µM	–
On1c2c(c3c4nonc4ccc31)CCCC2	inconclusive: 2 µM [inhibitor, full curve, poor fit]	–
COc1ccc(NC(=O)COC(=O)c2ccc(C)c(S(=O)(=O)N3CCCCC3)c2)cc1	inconclusive: 28.2 µM [inhibitor, single point]	–
Nc1[nH]nc2c1NN(c1ccc(Cl)cc1Cl)N2	inconclusive: 25.1 µM [inhibitor, single point]	–
CCOC(=O)c1nnn(-c2nonc2-n2cccc2)c1-c1cccc([N+](=O)[O-])c1	inconclusive: 39.8 µM [inhibitor, partial curve]	–
O=C(NC(=S)Nc1cc(S(=O)(=O)N2CCOCC2)ccc1N1CCOCC1)C1CCCC1	inconclusive: 89.1 µM [inhibitor, partial curve, poor fit]	–
COc1ccc(N(Cc2cc3cccc(C)c3[nH]c2=O)C(=O)c2cccc(Cl)c2)cc1	inactive	–
Nc1cccc2c1C(=O)N(C(=O)c1cccc(S(=O)(=O)N3CCCCCC3)c1)C2=O	inconclusive: 11.2 µM [inhibitor, partial curve, poor fit]	–
COc1cc(S(=O)(=O)NCCc2c(C)[nH]c3ccccc23)c(C)cc1C	inconclusive: 35.5 µM [inhibitor, single point]	–
CC(=O)Nc1ccc(C(=O)COC(=O)c2cccs2)c(F)c1	inconclusive: 3.55 µM [inhibitor, partial curve, poor fit]	–
Cc1cccc(-n2c(CNC(=O)c3cccc(F)c3)nnc2SCC(=O)Nc2ccccc2F)c1	inactive	–
O=C(NCCN1CCCC1)C1CCN(S(=O)(=O)N2CCC3(CC2)OCCO3)CC1	inactive	–
COc1ccc(-n2c(=S)[nH]c3cc(C(=O)NCCCN4CCCC4=O)ccc3c2=O)cc1	inconclusive: 39.8 µM [inhibitor, full curve, poor fit]	–
C=CCN(CC=C)C(=O)c1cccc(S(=O)(=O)N2c3ccccc3CC2C)c1 (stereo not drawn)	inactive	–
COc1ccc(NC(=O)C2=C(C)Nc3ncnn3C2c2cccn2C)cc1 (stereo not drawn)	inactive	–
CN(CC(=O)Nc1ccccc1Cl)C(=O)Cn1cc(C(F)(F)F)cc(Cl)c1=O	active: 44.7 µM	–
CCNC(=S)/N=C(\N)Nc1nc(C)c2cc(C)ccc2n1	inconclusive: 2.82 µM [inhibitor, partial curve]	–
Cc1ccc2cc(COC(=O)c3ccncc3)c(=O)[nH]c2c1	active: 50.1 µM	–

From PubChem BioAssay AID504332 (National Center for Advancing Translational Sciences (NCATS), 2011)
